Data taken from article PMC4336329 (PLoS ONE, 2015).
Hit rate of the full screen: of about 310,000 compounds, about 2,200 (0.71%) showed an effect of 50% or more. The effect is printed as a negative number. This is one part of the list.

Each compound was assayed against human ether-à-go-go-related gene (hERG) potassium channel (human, UniProt Q12809) (assay: primary screen, population patch clamp on CHO cells stably expressing hERG).
Sequence of human ether-à-go-go-related gene (hERG) potassium channel (Q12809 whole entry, looked up): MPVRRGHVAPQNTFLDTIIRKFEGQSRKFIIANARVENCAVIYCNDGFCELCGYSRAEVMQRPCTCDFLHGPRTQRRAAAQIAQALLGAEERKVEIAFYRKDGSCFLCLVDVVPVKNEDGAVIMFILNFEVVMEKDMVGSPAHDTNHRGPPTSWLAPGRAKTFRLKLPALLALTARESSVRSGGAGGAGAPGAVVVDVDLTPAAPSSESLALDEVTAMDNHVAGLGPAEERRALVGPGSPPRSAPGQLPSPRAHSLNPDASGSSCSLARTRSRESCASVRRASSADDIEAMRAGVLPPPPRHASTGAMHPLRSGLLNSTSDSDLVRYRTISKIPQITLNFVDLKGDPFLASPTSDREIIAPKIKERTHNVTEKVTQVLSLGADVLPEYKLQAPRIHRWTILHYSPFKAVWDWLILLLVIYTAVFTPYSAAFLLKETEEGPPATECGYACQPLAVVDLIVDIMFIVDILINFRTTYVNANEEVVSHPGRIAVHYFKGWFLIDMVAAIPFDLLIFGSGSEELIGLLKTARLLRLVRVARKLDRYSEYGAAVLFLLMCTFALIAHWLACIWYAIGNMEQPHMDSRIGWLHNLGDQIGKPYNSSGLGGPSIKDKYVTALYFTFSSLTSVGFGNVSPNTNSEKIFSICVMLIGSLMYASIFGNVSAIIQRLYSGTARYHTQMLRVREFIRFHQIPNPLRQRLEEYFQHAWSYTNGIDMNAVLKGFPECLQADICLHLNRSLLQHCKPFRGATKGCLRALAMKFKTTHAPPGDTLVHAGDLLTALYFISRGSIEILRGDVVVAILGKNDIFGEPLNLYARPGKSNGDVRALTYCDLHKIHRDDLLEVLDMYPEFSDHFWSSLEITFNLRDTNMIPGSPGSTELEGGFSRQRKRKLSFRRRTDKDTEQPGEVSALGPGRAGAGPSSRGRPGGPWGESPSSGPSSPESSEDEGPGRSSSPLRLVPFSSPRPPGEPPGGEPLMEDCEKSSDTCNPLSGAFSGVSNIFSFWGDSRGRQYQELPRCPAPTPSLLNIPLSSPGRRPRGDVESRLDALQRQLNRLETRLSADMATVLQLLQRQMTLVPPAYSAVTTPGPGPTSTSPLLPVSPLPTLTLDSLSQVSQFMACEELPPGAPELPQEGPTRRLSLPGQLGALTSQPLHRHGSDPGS

Compound | hERG current change (%, negative = inhibition) at 1uM [%]
CCn1c(C)c(C(C)=O)c(N2CCCC2)nc1=S | -3.85
C=CCOC(=O)C1=C(C)NC(SCC(=O)Nc2nccs2)=C(C#N)C1c1ccc(Cl)cc1 (stereo not drawn) | 10.7
Cc1ccc(C(=O)N/C(=C/c2ccccc2F)C(=O)NCCCn2ccnc2)cc1 | -22.5
COc1cc(/C=N/NC(=O)C2(O)c3ccccc3-c3ccccc32)ccc1O | 7.54
CC(=O)N1c2ccccc2N(Cc2ccc(C)cc2C)C(=O)C1(C)C | 0.978
COc1ccc(CC(=O)NNC(=O)c2cccnc2)cc1OC | 13.2
CC1(C)C(=O)Nc2ccccc2N1C(=O)COC(=O)CSc1ccc(F)cc1 | 10.5
NC1=NC(=O)/C(=C\c2cccnc2)S1 | 8.22
CC1(C)CC(=O)C2=C(C1)Nc1cc3c(cc1C2c1ccc2c(c1)OCO2)OCO3 (stereo not drawn) | 0.897
O=C(O)Cc1ccc(C(=O)c2ccccc2F)s1 | 8.68
O=C(Nc1ccccc1C(=O)N1CCOCC1)C1COc2ccccc2O1 (stereo not drawn) | 4.67
CSc1nc2nc(-c3cccs3)cc(C(F)(F)F)c2c(=O)[nH]1 | 18.3
Cc1nc(SCC(=O)NCCc2ccccc2)c2oc3ccccc3c2n1 | -0.61
COc1ccc(C2C(C(=O)Nc3cc(C)on3)c3ccccc3C(=O)N2C)cc1 (stereo not drawn) | 8.27
COc1cc(N2Cc3ccccc3C2)ccc1C=O | 12.4
O[C@H]1c2ccccc2[C@H](Cc2cncs2)[C@@H]1Br | 11.9
Cn1cccc1/C=C1\SC(=S)N(Nc2ccccc2)C1=O | 11.5
COc1ccc(S(=O)(=O)CCC(=O)O)cc1 | 18.3
CCCC(=O)Nc1cc(C)c(NC(=O)Cc2ccccc2)cn1 | 3.08
COc1cc(/C=N/NC(=O)NC23CC4CC(CC(C4)C2)C3)ccc1O | -7.39
S=c1[nH]nc(-c2ccc3ncccc3c2)n1-c1ccc2c(c1)OCCO2 | 7.14
Cc1nc2cc(NC(=O)NCCC3=CCCCC3)ccc2o1 | 13.4
CCc1nnc(NC(=O)CSCc2cc(=O)n3cc(C)sc3n2)s1 | 2.32

Compound | hERG current change (%, negative = inhibition) at 1uM [%]
Cc1cc(Cl)ccc1N(CC(=O)NCc1ccccc1)S(C)(=O)=O | 9.8
O=[N+]([O-])c1cc(/C=N/O)ccc1SCc1ccccc1Cl | -5.27
O=C(c1cccc(C(F)(F)F)c1)C1CCCN(C(=O)CCCN2CCCC2=O)C1 (stereo not drawn) | 6.97
COc1cc(O)c(CCC(=O)c2ccc(OC)c(OC)c2)c(OC)c1 | 10.8
Cc1ccc(CCNC(=O)c2ccc(CS(=O)(=O)c3ccccc3C)o2)cc1 | 21.5
S=c1[nH]nc(-c2cc(-c3ccccc3)n[nH]2)n1/N=C/c1ccc(Br)s1 | 14.4
C/C=C/C(=O)OCC(=O)NC(=O)NC(C)C | 3.02
CCOC(=O)c1ccc(NC(=S)Nc2ccccc2N)cc1 | 9.23
O=C(c1ccoc1)N1CCC2(CC1)Oc1ccc(F)cc1C(=O)C21CC(c2ccc(Cl)cc2)=NO1 (stereo not drawn) | 18
O=C(Nn1c(Cc2ccccc2)nc2ccccc2c1=O)c1c(O)c2cccc3c2n(c1=O)CCC3 | 16
CCOc1c(Br)ccc2c1sc1nc[nH]c(=O)c12 | 7.41
CC(=O)NC(CCS(C)(=O)=O)C(=O)Nc1ccccc1C (stereo not drawn) | 11.1
Cc1ccc(CNC(=O)CCSCc2ccc(C)cc2)cc1 | 8.45
CS(=O)(=O)N(Cc1ccccc1)c1ccc(C(=O)Nc2ccccc2C(=O)O)cc1 | 14.4
Cc1occc1-c1nnc(SCC(=O)NC(C)(C)C)n1C(C)c1ccccc1 (stereo not drawn) | 2.41
COC(=O)CCC(=O)Nc1c(C)n(C)n(-c2ccccc2)c1=O | 7.9
O=c1c2ccccc2nc(N/N=C/c2c(O)ccc3ccccc23)n1O | 12.6
CCN(C(=O)/C=C/c1ccc(OC)cc1)C1CCS(=O)(=O)C1 (stereo not drawn) | -3.05
O=C(CCN1C(=O)c2ccccc2C1=O)N1CCOCC1 | 8.12
Cc1ccc(-c2cc(-c3ccc(C)cc3O)[nH]n2)cc1 | 9.69
COc1cc(CNCc2ccccn2)ccc1OCC(N)=O.Cl | 4.11
CCc1ccccc1NC(=O)C1CCCN(c2ncnc3onc(-c4ccc(F)cc4)c23)C1 (stereo not drawn) | 19.3
COc1cccc(CC(=O)Nc2nc(-c3ccc(F)c(F)c3)cs2)c1 | 6.25

Compound | hERG current change (%, negative = inhibition) at 1uM [%]
N#Cc1c(-c2ccc3c(c2)OCO3)cc[nH]c1=O | 9.68
Cc1nc2cc(NC(=O)COc3ccccc3C#N)ccc2n1-c1ccccc1 | 2.55
CCOC(=O)C1=C(N)Oc2cc(C)oc(=O)c2C12C(=O)N1c3c(cc(OC)cc32)C(C)=CC1(C)C (stereo not drawn) | 18.3
Cc1nnc(SCCCCSc2nnc(C)c(=O)[nH]2)[nH]c1=O | 8.72
C[n+]1ccc(-c2ccccc2)c2ccccc21.[O-][Cl+3]([O-])([O-])[O-] | 16.8
COc1ccc(NC(=O)CN2CC(c3ccccc3)CC2=O)cc1OC (stereo not drawn) | 12.3
CCCCC(=O)Nc1ccc(NC(=O)c2cccnc2)cn1 | 4.2
CCS(=O)(=O)N1CCN(c2ccccc2)CC1 | 7.1
Cc1cccnc1NC(=O)c1csnn1 | 8.96
O=C(c1cc(-c2ccccn2)nc2c(Cl)cccc12)N1CCN(C(=O)C2CCCO2)CC1 (stereo not drawn) | -3.08
Cc1cc(OCCOCCNCc2ccccc2)ccc1C(C)C.O=C(O)C(=O)O | 18.8
COc1nc(OC)nc(N2CCC(C(=O)Nc3cccc4ccccc34)CC2)n1 | 4.24
COc1ccccc1CC(=O)NCCc1c[nH]c2ccccc12 | 11.7
CC1=C(C(=O)OCc2ccccc2)N2C(=O)[C@@H](NC(=O)COc3ccccc3)[C@H]2SC1 | -4.75
NC1=NC(c2ccccc2)=NC1(NC(=O)c1ccccc1)C(Cl)Cl (stereo not drawn) | 15.1
CCCCn1cnc2c([nH]c3cc(OC)ccc32)c1=O | 6.65
CCOC(=O)Cn1c(=O)oc2cc(S(=O)(=O)N(C)Cc3ccco3)ccc21 | 13.3
O=c1cc(CN2CCN(S(=O)(=O)c3ccccc3)CC2)nc2ccc(Cl)cn12 | -3.74
Cc1ccc(S(=O)(=O)N2CCN(C(=O)C3CCCCC3)CC2)cc1 | 1.49
O=C1CC(N2CCCCCC2)C(=O)N1c1ccc2c(c1)OCO2 (stereo not drawn) | 0.811
c1ccc(-c2nnc(SCC3CCCO3)nc2-c2ccccc2)cc1 (stereo not drawn) | 2.16
Cc1ccc(NC(=O)c2ccc(OC(=O)COc3ccc(Cl)cc3C)cc2)cc1 | 5.53
O=C(NCc1ccc(Cl)cc1)NCc1ccc(Cl)cc1 | 17.6

Compound | hERG current change (%, negative = inhibition) at 1uM [%]
Cc1ccc(C)c(NS(=O)(=O)c2cc(C(=O)NCc3ccccn3)ccc2Cl)c1 | -2.78
Cc1nc(CC(=O)c2ccc(O)cc2O)cs1 | 13
COC(=O)CSc1nnc(CSc2nc(C)cc(C)n2)n1Cc1ccco1 | 11.5
Cc1csc(NC(=O)c2ccccc2C(=O)O)n1 | 5.16
O=C(NCc1ccncc1)c1cccc(F)c1 | 5.07
Cc1nc(SCC(=O)NCC2CCCO2)c2c3c(sc2n1)CCCC3 (stereo not drawn) | 8.09
O=S(=O)(Nc1c(S(=O)(=O)c2ccccc2)c2nc3ccccc3nc2n1C1CCCCC1)c1ccccc1 | 1.17
S=C1NCN(Cc2cccnc2)CN1 | 14
CC(=O)c1ccccc1OC(=O)COc1ccc(Cl)cc1C | 13
CCO.CSc1sc(C)cc1C1C(C#N)=C(N)N(c2cccnc2)C2=C1C(=O)CC(C)(C)C2 (stereo not drawn) | -4.33
COc1cccc(-c2nnc(SCC(=O)Nc3ccc(S(N)(=O)=O)cc3)n2C)c1 | -2.58
O=C(CN(Cc1ccccc1Cl)C(=O)CNS(=O)(=O)c1ccc(F)cc1)NCC1CCCO1 (stereo not drawn) | 10.3
Cc1ccc(S(=O)(=O)NCC(=O)OCC(=O)NCc2ccc(F)cc2)cc1 | 10.3
CCOc1cc(/C=N/NC(=O)C(=O)NCC2CCCO2)ccc1OCC(=O)N1CCOCC1 (stereo not drawn) | -0.555
Cc1cc(C)n2c(nc3ccccc32)c1C(=O)NN | 7.47
CCOC(=O)CSc1ncc(OC)c(Sc2ccc(Cl)cc2)n1 | 9.53
CCNS(=O)(=O)c1ccc(NC(=O)c2cncc(Br)c2)cc1 | 12
COc1ccc([C@H]2CC(=O)C=C(c3cccc(CO)c3)C2)cc1OC | -18.9
COC(=O)c1ccccc1C(=O)N1CC(O)CO1 (stereo not drawn) | 7.4
Cc1cc(C)c2nc(N3CCC(C(=O)NCCCN4CC(C)CC(C)C4)CC3)sc2c1 (stereo not drawn) | -32.6
CC(C)[C@H](NC(=O)[C@@H]1CSC2c3ccccc3C(=O)N21)C(=O)N1CCCCC1 (stereo partly drawn) | 8.78
